# Measured values: the RNAGym collection of RNA variant scans (doi:10.7554/elife.90254)
# Read counts are not given, so values of variants with three or more changes are uncertain.
# B1: LINE1-full (parent)
# chain: UACGUAGGUGGUUUUCCCCUGAUAGUGCUAAGGGGGCCUGGAAGUUUGGACUGGGCAGAGCUCAACACAGCGUGGCAAAGUGGCUGUGGCUAGACUGCCUCUCUGGAUUCCUCGUCACUCAGCAGGGCAUCUCUGAGAGAAAUGCC
# Variants of: B1
# Assay: self-cleavage, relative activity (ratio to wild type); higher = more cleavage; in vitro, sequencing; the parent is a self-cleaving ribozyme
row,Variant,self-cleavage
1,UACGUAGGUGGUUUCCCCCUGAUAGUGCUAAGGGGGCCUGGAAGUUUGGACUGGGCAGAGCUCAACACAGCAUGGCAAAGUGGCUGUGGCUAGACUGCCUCUCUGGAUUCCUCGUCACUCAGCAGAGCAUCUCUGAGAGAAAUGCC [U15C G72A G126A],1.77
2,UACGUAGGUGGUUUUCCCCUGAUAGUGCUAAGGGGGCCUGGAAGUUUGGACUGGGCAGAGCUCAACACAGCGUGGCAAGGUGGCUGUGGCUAGACUGCCUCUCUGGAUUCCCCGUCACUAAGCAGGGCAUCUCUGAGAGAAAUGCC [A79G U112C C120A],0.78
3,UACGUAGGUGGUUUUCCCCUGAAAGUGCUAAGGGGGCCUGGAAGUUUGGACUGGGCAGAGCUCAACUCAGCGUGGCAAAGUGGCUGUGGCUAGGCUGCCUCUCUGGAUUCCUCGUCACUCAGCAGGGCAACUCUGAGAGAAAUGCC [U23A A67U A94G U130A],0.16
4,UACGUAGGCGGUUUUCCCCUGAUAGUGCUAAGGGGGCCUGGAAGCUUGGACUGGGCAGGGCUCAACACAGCGUGGCAAAGUGGCUGUGGCUAGACUGCCUCUCUGGAUUCCUCGUCACUCAGCAGGGCAUCUCUGAGAGAAAUGCC [U9C U45C A59G],0.53
5,UACGUAGGUGGUUUUCCCCAGAUAGUGCUAAGGGGGCCUGGAGGUUUGGACUGGGCAGAGCUCAACACUGCGUGGCAAAGUGGCGGUGGCUAGACUGCCUCUCUGGAUUCCUCGUCACUCAGCAGGGCAUCUCUGAGAGAAAUGCC [U20A A43G A69U U85G],0.2
6,UACGUAGGUGGUUUUCCCCUGAUAGUGCUAAGGGGGCCUGGGAGUUUGGACUGGGCAGAGCUCAACACAGCGUGGCAAAGUGGCUGUGGCUAGACCGCCUCUCUGGAUUCCUCGUCACUCAGCAGGGCAUCUCUGGGAGAAAUGCC [A42G U96C A136G],0.36
7,UACGUAGGUGGUUUUCCCCUGAUAGUGCUAAGGGGGCCUGGAAGUUUGGACUGGGCAGAGCUCAACGCAGCGUGGCAAAGUGGCUGCGGCUAGACUGCCUCUCUGGAUUCCUCGACACUCAGCAGGGUAUCUCUGAGAGAAAUGCC [A67G U87C U115A C128U],2.97
8,UACGUAGGUGGUUUUCCCCUGAUAGUGCUAAGGGGGCCUGGAAGUUUGGACUGGGCAGAGCUCAACACGGCGUGGCAAAGUGGCUGUGGCUAGACUGCCUCUCUGGAUUCCUCGUCACUCGGCAGGGCAUCUCUGGGAGAAAUGCC [A69G A121G A136G],1.15
9,UACGUAGGUGGUUUACCCCUGAUAGUGCUAAGGGGGCCUGGAAGUUUGGACUGGGCAGAAUUCAACACAGCGUGGCAAAGUGGCUGUGGCUAGACUGCCUCUCAGGACUCCUCGUCACUCAGCAGGGCAUCUCUGAGAGAAAUGCC [U15A G60A C61U U104A U108C],0.04
10,UACGUAGGUGGGUUUCCCCUGAUAGUACUAAGGGGGCCUGGAAGUUUGGACAGGGCAGAGCUCAACACAGCGUGGCAAAGUGGCUGUGGCUAGACCGCCUCUCUGGAUUCCUCGUCACUCAGCAGGGCAUCUCUGAGAGAAAUGCC [U12G G27A U52A U96C],0
11,UACGUAGGUGGUUUUCCCCUGAUAGUGCUAAGGGGGCCUGGAAGUUCGGACUGGGCAGAGCUCAACACAGCGUGGCAAAGUGGCUGUGGCUAGACUGCCUCUCUGGAUUCCUCGUCACCCAGCAGGGCAUCUCUGAGAGGAAUGCC [U47C U119C A140G],1.86
12,UACGUAGGUGGUCUUCCCCUGAUAGUGCUAAGGGGGCCAGGAAGUUUGGACUGGGCAGAGCUCAACACAGCGUGGCAAAGUGGCUGUGGCUAGACUGCCUCUCUGGAUUCCUCGUCACUCAGCAGGGCAUCUCUGAGAAAAAUGCC [U13C U39A G139A],0.53
13,UACGUAGGUGGUUUUCCCCUGAUAGUGCUAAGGGGGCCUGGAAGUUUGGACUGGGCAGAGCUCAACACAGCGUGGCAGGGUGGCUGUGGCUAGACUGCCUCUCUGGAUUCCUCGUCUCUCAGCAGGGCAUCUCUGAGAGAAAUGCC [A78G A79G A117U],0.61
14,UACGUAGGUGGUUUUCCCCUGAUAGUGCUAAGGGGGCCAGGAAGUUUGGUCUGGGCAGAGCUCAACACAGCGUGGCAAAGUGGCUGUGGCUAGACCGCCUCUCUGGAUUCCUCGUCACUCAGCAGGGCAUCUCUGAGAGAAAUGCC [U39A A50U U96C],0.06
15,UACGUAGGUGGUUUUCCCCUGAUAGUGCUAAGGGGGCCUGGAAGUUUGGACUGGGCAGAGCUCAACACAGCGUGGCAAAGUGGUUGUGGCUAGACUGCCUCCCUGGAUUCCUCGUCACUCAGCAUGGCAUCUCUGAGAGAAAUGCC [C84U U102C G125U],0.13
16,UACGUAGGUGGCUUUCCCCUGAUAGUGCUAAGGGGGCCUGGAGGUUUGGACUGGGCAGAGCUCAACACAGCGUGGCAAAGUGGCUGUGGCUAGACAGCCUCUCUGGAUUCCUCGUCACUCAGCAGGGCAUCUCUGAGAGAAAUGCC [U12C A43G U96A],0.06
17,CACGUAGGUGGUUCUCCCCUGAUAGUGCUAAGGGGGCCUGGAAGUUUGGACUGGGCAGAGCUCAACACAGCGUGGCUAAGUGGCUGUGGCCAGACUGCCUCUCUGGAUUCCUCGUCACUCAGCAGGGCAUCUCUGAGAGAAAUGCC [U1C U14C A77U U91C],0.12
18,UGCGCAGGUGGUUUUCCCCUGAUAGUGCUAAGGGGGCCCGGAGGUUUGGACUGGGCAGAGCUCAACACAGCGUGGCAAAGUGGCUGUGGCUAGACUGCCUCUCUGGAUUCCUCGUCACUCAGCAGGGCAUCUCUGAGAGAAAUGCC [A2G U5C U39C A43G],0
19,UACGCAGGUGGUUUUCCCCUGAUAGUGCUAAGGGGGCCUGGAAGAUUGGACUGGGCAGAGCUCAACACAGCGUGGCAAAGUGGCUGUGGCUAGACUGCCUCUCUGGAUUCCACGUCACUCAGCAGGGCAUCUCUGAGAGAAACGCC [U5C U45A U112A U143C],0.89
20,UACGUAGGUGGUCUUCCCCUGAUAGUGCUAAGGGGGCCUGGAAGUUUGGACUGGGCAGAGCUCAACACAGCGUGGCAAAGUGGCUGUGGCUAGACUGCCUCUCUGGAUUCCUCGUCACUCAACAGGGCGUCUCUGAGAGAAAUGCC [U13C G122A A129G],0.98

row,Variant,self-cleavage
1,UACGUAGGUGGUUUUCCCCUGUUAGUGCUAAGGGGGCCUGGAAGUUUGGGCUGGGCAGAGCUCAACACAGCGCGGCAAAGUGGCUGUGGCUAGACUGCCUCUCUGGAUUCCUCGUCACUCAGCAGGGCAUCCCUGAGAGAAAUGCC [A22U A50G U73C U132C],0.71
2,UACGUAGGUGGUUUUCCCCUGAUAGUGCUAAGGGGGCCUGGAAGUUUGGACUGGGCAGAGCUCAGCACAGCUUGGCAAAGUGGCUGUGGCUAGACUGCCUCUCUGGAUUCCUCGUCACUCAGCAGGGCAUCUCUGAGAGAGAUGCC [A65G G72U A141G],0.04
3,UACGUAGGUGGUUUUCCCCUGAUUGUGCUAAGGGGGCCUGGAAGUUUGGACUGGGCAGAGCUCAACACAGCGUGGCGAAGUGGCUGUGGCUAGACUGCCUCUCUGGAUUCCUCGUCACUCAGCGGGGCAUCUCUGAGAGAAAUGCC [A24U A77G A124G],1.2
4,UACGUAGGUGGUUUUCCCCUGAUAGUGCUAAGGGGGCCUGGAAGUUUGGACUGGGCAGAGCUCAACGCAGCGUAGCAAAGUGGCUGUGGCUAGACUGCCCCUCUGGAUUCCUCGUCACUCAGCAGGGCAUCUCUGAGAGAAAUGCC [A67G G74A U100C],0.52
5,UACGUAGGUGGUUUUCCCCUGAUAGUGCUAAGGGGGCUUGGAAGCUUGGACAGGGCAGAGCUCAACACAGCGUGGCAAGGUGGCUGUGGCUAGACUGCCUCUCUGGAUUCCUCGUCACUCAGCAGGGCACCUCUGAGAGAAAUGCC [C38U U45C U52A A79G U130C],0.44
6,UACGUAGGAGGUUUUCCCCUGAUAGUGCUAAGGGGGCCUGGAAGUUUGGACUGGGCAGAGCUCAACACAGCGUGGCAAAGUGGCUGUGGCUAGACUGCCUCUCUGGAUACCUCGUCGCUCAGCAGGGCAUCUCUGAGAGAAAUGCC [U9A U109A A117G],0.16
7,UACGUAGGUGGUUUUCCCCUGAUAGUGCUUAGGGGGCCUGGAAGUUUGGACUGGGCAGAGCUCAACACAGCGUGGCAAAGUGGCUGUGGCUAGACUGCCUCUCUGGAUUCCUCGUCACUCAGCAGGGCAUCUCUGAGAGAAGUGUC [A30U A142G C145U],0.72
8,UACGUAGGUGGUUUUCCCCUGAUAAUGCUAAGGGGGCCUGGAAGUUUGGACUGGGCAGAGCUCAACACAGCGUGGCAGAGUGGCUGUGGCUAGACUGCCUCUCUGGAUUCCUCGUCACACAGCAGGGCAUCUCUGAGAGAAAUGCC [G25A A78G U119A],1.06
9,UACGUAGGUGGUUUUCCCCUGGCAGUGCUAAGGGGGCCUGGAAGUUUGGACUGGGCAGAGCUCAACACAGCGUGGCAAAUUGGCUGUGGCUAGACUGCCUCUCUGGACUCCUCGUCACUCAGCAGGGCAUCUCUGAGAGAAAUGCC [A22G U23C G80U U108C],2.35
10,UACGUAGGUGGUAUUCCCCUGAUAGUGCUAAGGGGGCCUGGAAGUUUGGACUGGGCAGAGCUCAACACAGCGUGGCAAAGUGGCUGUGGCUAGACUGCCUCUCUGGAUUCCACGUCACUCAGCAGGGCAUCUCUGAGGGAAAUGCC [U13A U112A A138G],1.33
11,UACGUAGGUGGUUUUCCCCUGAUAUUGCUAAGGGGGCCUGGAAGUUUGGACUGGGCAGAGCUCAACACUGCGUGGCAAAGUGGCUGUGGCUAGACAGCCUCUCUGGAUUCCUCGUCACUCAGCAGGGCAUCUCUGAGAGAAAUGCC [G25U A69U U96A],0.01
12,UACGUAGGAGGUUUUCCCCUGAUAGUGCUAAGGGGGCCUGGAAGUUUGGACUGGGCAGAGCGCAACACAGCGUGGCAAGGUGGCUGUGGCUAGACUGCCUCUCUGGAUUCCUCGUCACCCAGCAGGGCAUCUCUGAGAGAAAUGCC [U9A U62G A79G U119C],0
13,UACGUAGGUGGUUUUCCCCUGAUAGUGCUAAGGGGGCCUGGAAGUUUGGACUGGGCAGAGCUCGACACAGCGUGGCAAAGUGGCUGUGGCUAGACUGCUUCUCUGGAUUCCUCGUCACUCAGCAGGGCAUCUCUGAGAGAAGUGCC [A64G C99U A142G],0.23
14,UACGUAGGUGGCUUACCCCUGAUAGUGCUAAGGGGGCCUGGAAGUUUGGACUGGGCAGAGCUCAACACAGCGUGGCUAAGUGGCUGUGGCUGGACUGCCUCUCUGGAUUCCUCGUCACUCAGCAGGGCAUCUCUGAGAGAAAUGCC [U12C U15A A77U A92G],0.27
15,UACGUAGGUGGUUUCCCCCUGAUAGAGCUAAGGGGGCCUGGAAGUUUGGACUGGGCAGAGCUCAACACAGCGUGGCAAAGUGGCUGUGGCUAGACUGCCUCUCUGGAUUCCUAGUCACUCAGCGGGGCAUCUCUGAGAGAAAUGCC [U15C U26A C113A A124G],0.85
16,UACGUAGGUGGUUUCCCCCCGAUAGCGCUAAGGGGGCCUGGAAGUUUGGACUGGGCUGAGCACAACACAGCGCGGCAAAGUGGCUGUGGCUAGACUGCCUCUCUGGAUUCCUCGUCACUCUGCAGGGCAUCUCUGAGAGAAAUGCC [U15C U20C U26C A57U U62A U73C A121U],0
17,UACGUAGGUGGUUUUCCCCUGAUAGUGCUAAGGGGGCCUGGAAGUUUGGACCGGGCAGAGCACAACACAGCGUGGCAAAGAGGCUGUGGCUAGACUGCCUCUCUGGAUUCCUCGUCACUCAGCAGGGCAUCUCUGAGAGAGAUGCC [U52C U62A U81A A141G],0.06
18,UACGUAGGUGGUUAUCCCCUGAUAGUGCUAAGGGGGCCUGGAAGUUUGGACUGGGCAGAGCCCAACACAGCGUGGCAAAGUGGCUAUGGCUAGACUGCCUCUCUGGAUUCCUCGUCACUCAGCAGGGCAUCUCUGAGAGAAAUACC [U14A U62C G86A G144A],0.09
19,UGCGUAGGUGGUUUUCCCCUGAUAGUGCUAAGGGGGCCUGGAAGUUUGGACAGGGCAGAGCUCAACACAGCGUGGCGAAGUGGCUGUGGCUAGACUGCCUCUCUGGAUUCCUCGUCACUCAGCAGGGCAUCUCUGAGAGAAAUGCC [A2G U52A A77G],0.88
